In all, about 52,000 compounds went through this assay and about 4,300 (8.3%) were called active. Cut-off read from the data, not from the text of the source: active = survival mostly below about 52% (no sharp cut-off); inactive = mostly above about 56%. The list shows a part of the results.

From PubChem BioAssay AID463173 (ICCB-Longwood Screening Facility, Harvard Medical School, 2010) come the findings set out here.

This experiment deals with DeltatarO mutant. The experiment in a line: growth inhibition of S. aureus wild type versus tarO mutant, primary screen, teichoic acid synthesis inhibitors, RN4220, OD600 (AID 463173). Conditions: OD600, 18 h, stronger effect = lower value, screened at 18.75 µg/mL (by protocol).
Regarding `O=C1CCCc2cc(S(=O)(=O)NCC3CCC(C(=O)NCc4ccc(F)cc4)CC3)ccc2N1` (configuration not stated), the survival is inactive: 67%.
On to `COc1ccccc1N1CCN(S(=O)(=O)c2cccc3nsnc23)CC1`, for which the survival is inactive: 88%.
Regarding `CCOC(=O)c1c(C)c(-c2ccccc2)n(CC(=O)Nc2cc(C)cc(C)c2)c1C`, the survival is inactive: 80%.
In the case of `Cc1ccc(N2CCN(S(=O)(=O)c3ccc(Cl)c4ccccc34)CC2)c(C)c1`, the survival was inactive: 76%.
Take `O=C(Nc1cccc(C(F)(F)F)c1)c1cccc(C(=O)Nc2cccc(C(F)(F)F)c2)c1`: the survival was inactive: 84%.
Turning to `Cc1ccc(CNC(=O)Cc2ccc(NC(=O)N3CCSc4ncccc43)cc2)cc1`, the survival was inactive: 72%.
For `CCc1ccccc1NC(=O)c1ccc2c(c1)nnn2C1CCCC1`, the survival is inactive: 109%.
`O=C1NN(c2ccccc2)C(=O)C2C3C=CC(C4CC34)C12` (configuration not stated): the survival is inactive: 80%.
In the case of `CCCNC(=O)c1ccc(Cn2c(=O)c3cccn3c3cccnc32)cc1`, the survival was inactive: 52%.
Regarding `CCN=C1Sc2nc3ccc(OCC)cc3cc2CN1CCOC`, the survival was inactive: 104%.
To `CCOc1ccccc1NC(=O)CN1C(=O)COc2ccc(S(=O)(=O)NC3CCCC3)cc21` belongs inactive: 74%.
For `COc1cc(Cl)c(C)cc1NC(=O)c1cnn(-c2ccc(F)cc2F)c1C1CCN(C(=O)OC(C)(C)C)CC1` the value was inactive: 64%.
For `COc1ccc2cc(CNc3ccc(C)cc3)c(=O)n(CC(=O)Nc3cccc(Cl)c3C)c2c1` the value was inactive: 80%; for `CCOC(=O)c1cc2oc(C)cc2n1CC(=O)NC1CC1`, inactive: 86%.
For the compound `Cc1ccc(-c2nnc(Nc3ccccc3)c3ccccc23)cc1S(=O)(=O)N1CCN(C)CC1`, the survival is inactive: 86%.
To `CCOC(=O)c1c(NC(=O)COc2ccccc2Br)sc2c1CCCCC2` belongs active: 40%.
For `O=C(CSc1nnc(-c2cccc(F)c2)c(-c2cccc(F)c2)n1)NC1CCCCC1` the value was inactive: 73%; for `O=C(Cn1ncc2c(=O)oc3ccccc3c21)N1CCN(c2ccc(Cl)cc2)CC1`, inactive: 93%.
With `COc1ccc(-n2nc3c(N4CCC(C(=O)NCCc5ccccc5)CC4)nnc(C)c3c2C)cc1`, the survival is inactive: 85%.
In the case of `COc1cccc(CSc2nc(-c3ccccc3F)nc3c2Cc2c(CO)cnc(C)c2O3)c1`, the survival was inactive: 63%.
For `COc1ccc(-c2nc(CSc3nnc(C)n4c3cc3oc(C)cc34)c(C)o2)cc1OC` the value was inactive: 71%; for `O=C(c1cccs1)N(Cc1cccnc1)c1nc2c(F)cc(F)cc2s1`, inactive: 92%; for `CCn1cc2nc(SCc3ccc(F)cc3)n(CCc3ccccc3)c(=O)c2n1`, inactive: 84%.
As to `CCN(CCCNC(=O)c1ccc(Sc2ccc(Cl)cc2)c(NC(C)=O)c1)c1ccccc1`, the survival is inactive: 70%.
In the case of `Cc1ccc(S(=O)(=O)/N=C2\C=C(Sc3ncn[nH]3)C(=O)c3ccccc32)cc1`, the survival was inactive: 77%.
For `CCN(CC)S(=O)(=O)c1nnc(NC(=O)c2ccc(Br)cc2)s1` the value was active: 44%; for `CCCNC(=O)Cn1nc(C(F)(F)F)c2c1CCC2`, inactive: 97%; for `Cc1c(C(=O)N(C)C)sc2c1c(=O)n(-c1ccc(F)cc1)c(=O)n2Cc1ccccc1C#N`, inactive: 76%.
In the case of `CCc1ccccc1N(C)S(=O)(=O)c1ccc2c(c1)C(C)(C)C(=O)N2C`, the survival was inactive: 82%.
With `Fc1ccc2c(c1)-c1c(cnc3cc(-c4ccc(Cl)cc4)nn13)CO2`, the survival was inactive: 69%.
`CC(=O)N1CCc2cc(CNC(=O)Nc3ccc(Br)c(C)c3)ccc21`: the survival is inactive: 87%.
For `COc1cccc(NC(=O)c2csnn2)c1` the value was inactive: 89%; for `CC(=O)Nc1ccc(NC(=O)C2CCN(c3cnccn3)CC2)cc1`, inactive: 74%.
For `C=Cc1ccc(Cn2ccn(-c3ccc(F)c(F)c3)c(=O)c2=O)cc1`, the survival was inactive: 108%.
Turning to `COc1ccc(CCN2C(=O)c3[nH]nc(-c4ccccc4O)c3C2c2ccccc2)cc1` (configuration not stated), the survival is active: 22%.
For `C=CCSc1nc2sc3c(c2c(=O)[nH]1)CC(C)(C)OC3`, the survival is inactive: 116%.
Regarding `COCCNC(=S)N1CCC(C(=O)c2ccc(F)cc2)CC1`, the survival was inactive: 108%.
For the compound `Cc1ccc(CNC(=O)CCc2cn(Cc3ccc(C)cc3)c3ccccc23)cc1`, the survival is inactive: 68%.
For the compound `O=C(O)CN1CCCCC1`, the survival was inactive: 89%.
As to `CCOc1ccc(-c2cc3nc(C4CCN(C(=O)OC(C)(C)C)CC4)c(C(=O)Nc4c(C)cccc4C)cn3n2)cc1`, the survival was inactive: 68%.
With `CC1=NN(c2ccccc2)C(=O)C1(O)C1C(=O)c2ccccc2C1=O` (configuration not stated), the survival is inactive: 102%.
With `CCC(=O)Nc1ccccc1-c1nc2ccccc2n(C(CC)C(=O)Nc2cccc(Cl)c2)c1=O` (configuration not stated), the survival was active: 24%.
As to `Cc1cc(C)c(Cn2c(=O)n(CCCCC(=O)NCc3ccccc3Cl)c(=O)c3ccccc32)c(C)c1`, the survival is inactive: 93%.
As to `CCOC(=O)c1c(C)sc(-c2c(-c3cccc(Cl)c3)[nH]c3c2c(=O)n(C)c(=O)n3C)c1O`, the survival was inactive: 113%.
For the compound `COc1ccc(NC(=O)C2=C(C)Nc3ncnn3C2c2ccc[nH]2)cc1` (configuration not stated), the survival is inactive: 94%.
In the case of `COc1ccc(NC(=O)C(=O)NCCc2csc(-c3ccc(Cl)cc3)n2)cc1OC`, the survival was inactive: 86%.
For `Cc1ccc2[nH]c(=O)c(CC3CC(c4ccccc4)=NN3C(=O)CCC(=O)O)cc2c1` (configuration not stated) the value was inactive: 103%.
As for `COc1ccc(-c2nc3scc(CCNS(=O)(=O)c4ccc(C)cc4)n3n2)cc1`, the survival was inactive: 70%.
To `CCN1CCN(c2ncc3c(n2)CCN(Cc2cc(F)cc(F)c2)C3)CC1` belongs inactive: 90%.
For `COc1ccccc1NC(=O)C(=O)NCC(c1ccc2c(c1)OCO2)N1CCN(C)CC1` (configuration not stated), the survival was inactive: 74%.
Take `COc1ccc(S(=O)(=O)N(CC(=O)Nc2ccccc2Br)Cc2ccccc2)cc1`: the survival was inactive: 59%.
In the case of `Cn1c(=NC(=O)c2ccc(S(=O)(=O)N3CCCc4ccccc43)cc2)sc2cc(F)ccc21`, the survival is inactive: 60%.
In the case of `CC(C)OCCCn1c(=O)c2ccccc2n2c(-c3ccc(F)cc3)nnc12`, the survival is inactive: 98%.
For `CC(C)N(C(=O)Cn1nnc2c(cnn2-c2ccccc2)c1=O)C(C)C`, the survival is inactive: 115%.
To `Cc1cccc(C(=O)Nc2c(-c3ccccc3)nc3cc(C)ccn23)c1` belongs active: 27%; to `Cc1ccc(Cl)cc1NC(=O)c1cnc(N2CCCCC2)c2ccccc12`, inactive: 91%.
In the case of `O=C(Cn1c(SCC(=O)Nc2ccc(F)cc2)nc2ccccc21)NCc1ccc(F)cc1`, the survival is inactive: 91%.
